# This is one part of the list.
# B1: 72332980_72347208_1028_CDS_ENSG00000157107_ENST00000430046|human|control|control (ssRNA)
# RNA: GGGAGUUCUACAGUCCGACGAUCACUGUAGCCUUCUUCAUCUACAUCAGGAAUGUUCAAUGAAUCUGCAUCAGGACAUUCCACAGAUUCUGCAUCUUUUUCCUUUUUAAUGAUUCCUGGCAAAGCAAAGGUCUUUCUUUUCCUCAACAGAGGAUUGAGCAUCA
# B2: chr2:152319639:152319640:+_ENSG00000080345_ENST00000243326|hu_hu|motif|central (ssRNA)
# RNA: GGGAGUUCUACAGUCCGACGAUCUUGCCUCCGACUUGUAGGGUAUGGGGGAGUUCCAGCAACAGUGGUAUUAGAAACUGAACGGCUGCUGACAACGAAAGAAUUUUCUGUACUAGAUGCACAUUCAGUUGAUGUUUUCCUUGACAACAGAGGAUUGAGCAUCA
# B3: chr6:86325054:86325055:-_ENSG00000135316_ENST00000355238|hu_mus|FALSE|FALSE (ssRNA)
# RNA: GGGAGUUCUACAGUCCGACGAUCUCCACGCCCUCGACCUCUUGUUGGGGGAGGCAUAUGAGGUGGACCAUAAUAGUAGUAAUCAUCAUACAUUUGAUUCUUUGCUGCUUGCCUCUGAGCUUUUCUUUCUUUCCUCUUCUGAUCCAACAGAGGAUUGAGCAUCA
# B4: 39923092_39923697_3682_CDS_ENSG00000183337_ENST00000397354|human|control|control (ssRNA)
# RNA: GGGAGUUCUACAGUCCGACGAUCAGGAUGGAGCCCUUUAGAGACUCGUCGGCGUUUGGCUUUCAGCAGAGGGUCCUCUGGCACCUCCUCCGCAGUGGUCUCAGUGUGGCUGCUGUCACCUGAGACUUUGCGUUUCCUGUCCACCAACAGAGGAUUGAGCAUCA
# B5: chr11:69480845:69480846:-_ENSMUSG00000059796_ENSMUST00000163666|mus_mus|FALSE|FALSE (ssRNA)
# RNA: GGGAGUUCUACAGUCCGACGAUCUUCCUUCUUUUUGCCUCAAAAAGUGACAUUUAUUCAUAGAGAAAAAAAACUGAAACAAAAAAAAAAAAAGCCAAAACAAAAACAAGAUGUCCAUCCCUUGGCUCCCUCCCCUCCCCCCUCCAACAGAGGAUUGAGCAUCA
# B6: 75306124_75306591_1986_CDS_ENSMUSG00000020850_ENSMUST00000102510|mouse|control|control (ssRNA)
# RNA: GGGAGUUCUACAGUCCGACGAUCAAGGUUGCCCAGCCAUCGCUCUAGCAGAGGGGUAAUUCCACGCAUAAAGAACAGCCAGACCCGCCAGCCAGCAGCCCAGAAACCACAGCCAGGGCCUUUCCCUACAGGACCCGUGUUGAACAACAGAGGAUUGAGCAUCA
# B7: chr1:39494564:39494565:+_ENSG00000168653_ENST00000372967|hu_hu|hu_hu_hu_mus_True|38_98 (ssRNA)
# RNA: GGGAGUUCUACAGUCCGACGAUCAUGCAUUCGCCUCAUCGUUUUCUACCGAAGCAAGCACUCUUCGAAGUCAUCGAACUCUAUCUUGCACUCCUUUUCUGCCCGAGUCCCACCGAUCCCGUGUGCACACUCUAUCCACUCUUUCAACAGAGGAUUGAGCAUCA
# B8: chr1:80268134:80268135:-_ENSMUSG00000004364_ENSMUST00000163119|mus_mus|FALSE|FALSE (ssRNA)
# RNA: GGGAGUUCUACAGUCCGACGAUCGACUCUGUGUAGUUUAGAUGUGAAUUGAUCAUUAACUGUAAAUAUGUGGCCACUUUCUAUCUCCUUGGACUUGGGUUCUUUUGUGAGGACCCGCUGUGUUGGUUUACCACAGGCGAGGGACAACAGAGGAUUGAGCAUCA
# B9: chr1:167535829:167535830:-_ENSMUSG00000026566_ENSMUST00000068705|mus_mus|FALSE|FALSE (ssRNA)
# RNA: GGGAGUUCUACAGUCCGACGAUCAGGAGGAUUUUUGACAUCGCAGAUAUAGGUGCCAUUGUGAACAGCCUGAAUAUUUUCUAUAUUGAUUGAUGCAUCUUUCUUGUCAAGGUCCCCAGCCCAGGUGACUCGGUCUUUAAAUGGCAACAGAGGAUUGAGCAUCA
# B10: chr1:84720644:84720645:-_ENSMUSG00000026219_ENSMUST00000027421|mus_mus|FALSE|FALSE (ssRNA)
# RNA: GGGAGUUCUACAGUCCGACGAUCAUGAAUUUUAGAUUGUAUCUCAAUUUGAAUGAACACAGGAUGACAAGGCCUGGGGCUAAUGAAACUGUACGUGUUGUAUUUAAAAAGUAAAACAAACAAACAAAAACCAAACACCAAACCCAACAGAGGAUUGAGCAUCA
# B11: chr22:41863543:41863544:-_ENSG00000100410_ENST00000216252|hu_hu|FALSE|FALSE (ssRNA)
# RNA: GGGAGUUCUACAGUCCGACGAUCGGCAUCAGAGACCCCAGGUCCUCCACAGAUCACACAGCGCCCCUGGUAAGAUCCAUAGUUACACUCAUCACAUAUGCGCACCAGAGUGCAGGGACGCACAUAGGAGUCACAAAUCACACACAACAGAGGAUUGAGCAUCA
# B12: 97009035_97009955_691_CDS_ENSG00000121152_ENST00000240423|human|control|control (ssRNA)
# RNA: GGGAGUUCUACAGUCCGACGAUCAUCUGCUUCGGAGACAUUGAGGUUGUUUAUGUUCUGCUCAAUAGUUCUGUGUAAGUGCUUCUUCUUUGGCUUUACAGCCUUUUUGGUUGUUCCCAUUUCAGUAGCACUUCCAUCAGCAACCAACAGAGGAUUGAGCAUCA
# B13: chr8:104447970:104447971:+_ENSG00000164934_ENST00000297579|hu_hu|hu_hu_hu_mus_False|8_18 (ssRNA)
# RNA: GGGAGUUCUACAGUCCGACGAUCAUACACUUCCCUGCUUCGGCUCUUGUCCACAGGAAAGAUUCUAAUAGACUUAUCAAAGCUGGCAGACACAAAUUCCUUCCCAGUGGGAGAGUAAUCCACAUCAAGCACUGCAGACACGUGCAACAGAGGAUUGAGCAUCA
# B14: chr1:45478652:45478653:+_ENSG00000126088_ENST00000246337|hu_mus|motif|central (ssRNA)
# RNA: GGGAGUUCUACAGUCCGACGAUCGCAAGCCUCGGGAGAUCGGCAGGUGCUGAAGAAGUCCUGGGCAGCCCUGGUUUCCCGGAACUCUGGUAAGUAGCGGCCUGCCUGUCUCAUGCACCAAACGGGAGUAUAGUCUGUUUCCUCCAACAGAGGAUUGAGCAUCA
# B15: chr2:216981417:216981418:+_ENSG00000079246_ENST00000392132|hu_hu|hu_hu_hu_mus_True|1_28 (ssRNA)
# RNA: GGGAGUUCUACAGUCCGACGAUCCUGAUACUGGUCCUUGCCAGCAAGGGCAUUAUCAGUGCCAUCUGUGCCAUAGAGGACUAACGCAAUCUCAUCUUUGCUCUCCGCAAACACCUGUCGUUGGACAAACAUAGUCAUCACCUUCAACAGAGGAUUGAGCAUCA
# B16: 154962739_154962859_931_3pUTR_ENSMUSG00000042751_ENSMUST00000043313|mouse|control|control (ssRNA)
# RNA: GGGAGUUCUACAGUCCGACGAUCGGUCUGACAGUGUGUUGGCAGAGGACACGGGGAGAAUAGAGCAGAGAGCUGGGUAUCCGCUAGCCCGAGGCGUUGAUGUACAGCUGACUCUUGAGGAUGUAAUCGAUGACUGGCUGGGACCAACAGAGGAUUGAGCAUCA
# B17: chr10:70028019:70028020:-_ENSMUSG00000037747_ENSMUST00000162251|mus_mus|FALSE|FALSE (ssRNA)
# RNA: GGGAGUUCUACAGUCCGACGAUCAGCCUUCUCCAGCAGCUGUGUUAGAUGAACUUUGGAGUAAUCUGCUGUACAGAAUUCUAUAAUCUCACUCCAUUCAGACACGACGUAAUCACCAUCAACCUGUUUUGAGGCAGUCUGUACCAACAGAGGAUUGAGCAUCA
# B18: chr8:95500983:95500984:-_ENSG00000164944_ENST00000437199|hu_hu|hu_hu_hu_mus_True|38_58 (ssRNA)
# RNA: GGGAGUUCUACAGUCCGACGAUCAGAACACAUCUAUCGAGUAAAGGACCGUACAUGACGGCCUCUACCACUGCCUCCCACUAACAACUUUCCUCUCUGAGCCUCCAUGCCGCUAUUUGUACUAGCCCAGGACGGUCCCAGGCCCAACAGAGGAUUGAGCAUCA
# B19: chr1:35656432:35656433:-_ENSG00000116560_ENST00000357214|perfect_dup|FALSE|FALSE (ssRNA)
# RNA: GGGAGUUCUACAGUCCGACGAUCAGAUCUUCCACGAUCAUCCACUAUUACAACAGCCCUUUCAAUAGGACCAAAUUGGCUAAAGGCUUCUUCCAACAGUUCAUUGGAAACAUAAGGUGAAAGAUUACGAACAGAAAGGGCAGCCAACAGAGGAUUGAGCAUCA
# B20: chr11:95591783:95591784:-_ENSG00000087053_ENST00000352297|hu_hu|motif|central (ssRNA)
# RNA: GGGAGUUCUACAGUCCGACGAUCCUCAAAUAUGGAUCUUCUUGUCCGCCCCUCAGGUUUAUGAGCAAAUCGUAAAUUCCGGAUAUCCUUACACACAGUUUCUAGUCCAUAAGAAUUUUCACCUCGACUAGAAGCACCACCAAUCAACAGAGGAUUGAGCAUCA
# B21: chrX:109746815:109746816:+_ENSMUSG00000025529_ENSMUST00000071814|perfect_dup|motif|central (ssRNA)
# RNA: GGGAGUUCUACAGUCCGACGAUCGGUUUUAAAGUCACAAUGCCUACACUGGUGAAUCUUCCUACCCUUAUGAAUAUCACGGUGUUUUUUAAGCUCUGAAGGACGAUGAAAACCUUUAUCACAGACUUCACAUUUGUGAGGAAACAACAGAGGAUUGAGCAUCA
# B22: chr1:39494447:39494448:+_ENSG00000168653_ENST00000372967|hu_mus|hu_hu_hu_mus_False|8_68 (ssRNA)
# RNA: GGGAGUUCUACAGUCCGACGAUCGCACCGAGCGGCGUUCUUAUAGGGCUGUUCUGCGCUUAGGAACGUCAACCAUCGGUCCAGGCUGAUGCCCAGCUUUUUCUGUAUGUCAAGGAAAGGCAUGGCUGAUGCUCGUGCUUGUCACAACAGAGGAUUGAGCAUCA
# Target: T1, UNK ZnF1-3 (human, UniProt Q9C0B0 31-174)
# T1 sequence: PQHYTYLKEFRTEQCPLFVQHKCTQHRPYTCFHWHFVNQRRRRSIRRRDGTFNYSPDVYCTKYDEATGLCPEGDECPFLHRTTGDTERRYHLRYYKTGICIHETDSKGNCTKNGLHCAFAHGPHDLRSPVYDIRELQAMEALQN
# Experiment: nsRBNS (natural sequence RNA bind-n-seq); RBNS binding buffer (assumed for nsRBNS): 25 mM Tris pH 7.5, 150 mM KCl, 3 mM MgCl2, 0.01% Triton X-100, 500 ug/ml BSA, 20 U/ml SUPERase-In, 4 C; UNK is unkempt and MSI1 is Musashi-1; names of the RNAs are library labels; protein concentration not given here; high values mean tight binding
row,Binder,binding signal
1,B1,0.71 enrichment R
2,B2,0.861 enrichment R
3,B3,0.618 enrichment R
4,B4,1.16 enrichment R
5,B5,1.25 enrichment R
6,B6,1.81 enrichment R
7,B7,0.703 enrichment R
8,B8,0.658 enrichment R
9,B9,1.17 enrichment R
10,B10,1.63 enrichment R
11,B11,1.51 enrichment R
12,B12,0.243 enrichment R
13,B13,0.898 enrichment R
14,B14,0.825 enrichment R
15,B15,0.793 enrichment R
16,B16,1.86 enrichment R
17,B17,1.74 enrichment R
18,B18,1.13 enrichment R
19,B19,1.07 enrichment R
20,B20,1.01 enrichment R
21,B21,0.879 enrichment R
22,B22,0.636 enrichment R

# — article PMC12136788
